Measurements from the supplement of paper PMC12645437, “Orthogonal IMiD-Degron Pairs Induce Selective Protein Degradation in Cells” (ACS Chemical Biology, 2025).
Some of the results follow.

B1: Q9UKT9 (peptide)
chain: FNCDVCGACFTQKGNLLRHIKL
B2: Q9UKT9 (peptide)
chain: FVCEICGAQFTQKGNLLRHIKL
B3: Q9UKT9 (peptide)
chain: FRCDICGARFTQKGNLLRHIKL
B4: Q9UKT9 (peptide)
chain: LQCEICGFSCTQKGNLLRHIKL
B5: Q9UKT9 (peptide)
chain: FMCPICGAQFTQKGNLLRHIKL
B6: Q9UKT9 (peptide)
chain: FKCDVCGAPFTQKGNLLRHIKL
B7: Q9UKT9 (peptide)
chain: FVCNQCGRSFTQKGNLLRHIKL
B8: Q9UKT9 (peptide)
chain: FSCEQCGAPFTQKGNLLRHIKL
B9: Q9UKT9 (peptide)
chain: LWCPICGFACTQKGNLLRHIKL
B10: Q9UKT9 (peptide)
chain: FGCDVCGAFFTQKGNLLRHIKL
B11: Q9UKT9 (peptide)
chain: FKCPICGHIFTQKGNLLRHIKL
B12: Q9UKT9 (peptide)
chain: FSCPICGRTFTQKGNLLRHIKL
B13: Q9UKT9 (peptide)
chain: FDCPICGALFTQKGNLLRHIKL
B14: Q9UKT9 (peptide)
chain: FMCDQCGAIFTQKGNLLRHIKL
B15: Q9UKT9 (peptide)
chain: FNCPQCGASFTQKGNLLRHIKL
B16: Q9UKT9 (peptide)
chain: FACEICGHDFTQKGNLLRHIKL
B17: Q9UKT9 (peptide)
chain: FTCEVCGAEFTQKGNLLRHIKL
B18: Q9UKT9 (peptide)
chain: FTCSVCGHAFTQKGNLLRHIKL
B19: Q9UKT9 (peptide)
chain: FLCEICGHLFTQKGNLLRHIKL
B20: Q9UKT9 (peptide)
chain: FQCPVCGAQFTQKGNLLRHIKL
B21: Q9UKT9 (peptide)
chain: FRCNQCGRKFTQKGNLLRHIKL
B22: Q9UKT9 (peptide)
chain: FDCNICGAPFTQKGNLLRHIKL
B23: Q9UKT9 (peptide)
chain: FDCNQCGRPFTQKGNLLRHIKL
B24: Q9UKT9 (peptide)
chain: FGCPVCGANFTQKGNLLRHIKL
B25: Q9UKT9 (peptide)
chain: FMCEICGRQFTQKGNLLRHIKL
B26: Q9UKT9 (peptide)
chain: FACDQCGAHFTQKGNLLRHIKL
B27: Q9UKT9 (peptide)
chain: FHCNVCGASFTQKGNLLRHIKL
B28: Q9UKT9 (peptide)
chain: FHCEICGAPFTQKGNLLRHIKL
B29: Q9UKT9 (peptide)
chain: LFCPICGFHCTQKGNLLRHIKL
B30: Q9UKT9 (peptide)
chain: FGCEICGHQFTQKGNLLRHIKL
B31: Q9UKT9 (peptide)
chain: FHCEICGHYFTQKGNLLRHIKL
B32: Q9UKT9 (peptide)
chain: FQCPQCGAVFTQKGNLLRHIKL
B33: Q9UKT9 (peptide)
chain: FECPICGRIFTQKGNLLRHIKL
B34: Q9UKT9 (peptide)
chain: FGCDQCGAHFTQKGNLLRHIKL
B35: Q9UKT9 (peptide)
chain: FKCPICGAMFTQKGNLLRHIKL
B36: Q9UKT9 (peptide)
chain: FKCNQCGHRFTQKGNLLRHIKL
B37: Q9UKT9 (peptide)
chain: LICPICGFDCTQKGNLLRHIKL
B38: Q9UKT9 (peptide)
chain: FNCNICGAWFTQKGNLLRHIKL
B39: Q9UKT9 (peptide)
chain: FYCPQCGADFTQKGNLLRHIKL
B40: Q9UKT9 (peptide)
chain: FGCEICGRPFTQKGNLLRHIKL
B41: Q9UKT9 (peptide)
chain: LKCEICGFICTQKGNLLRHIKL
B42: Q9UKT9 (peptide)
chain: FVCNQCGHGFTQKGNLLRHIKL
B43: Q9UKT9 (peptide)
chain: FFCEICGARFTQKGNLLRHIKL
B44: Q9UKT9 (peptide)
chain: FCCEICGHPFTQKGNLLRHIKL
B45: Q9UKT9 (peptide)
chain: FDCDVCGAYFTQKGNLLRHIKL
B46: Q9UKT9 (peptide)
chain: FHCEICGRAFTQKGNLLRHIKL
B47: Q9UKT9 (peptide)
chain: FFCNQCGACFTQKGNLLRHIKL
B48: Q9UKT9 (peptide)
chain: FECNQCGRYFTQKGNLLRHIKL
B49: Q9UKT9 (peptide)
chain: FYCDVCGALFTQKGNLLRHIKL
B50: Q9UKT9 (peptide)
chain: FACNICGADFTQKGNLLRHIKL

Biological target: no compound (DMSO)
Test: log2 fold change of degron read counts, EGFP-low vs EGFP+ sorted cells; higher = lower degron-EGFP level without compound (poor expression or instability)
Conditions: compound: DMSO control; 18 h
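Also: jurkat cells carrying a lentiviral library of mutant zinc finger degrons fused to EGFP plus mCherry, mCherry+ cells FACS sorted, degron abundance counted by next-generation sequencing.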

| Sequence | log2 fold change of degron read counts |
| --- | --- |
| B1 | -0.837 |
| B2 | -1.97 |
| B3 | -1.36 |
| B4 | -0.625 |
| B5 | -0.243 |
| B6 | -1.2 |
| B7 | -1.06 |
| B8 | -1.55 |
| B9 | 2.42 |
| B10 | 0.0157 |
| B11 | -0.846 |
| B12 | -0.747 |
| B13 | -0.436 |
| B14 | -0.622 |
| B15 | -1.49 |
| B16 | -1.24 |
| B17 | -2.35 |
| B18 | -0.659 |
| B19 | -1.66 |
| B20 | -0.176 |
| B21 | -0.704 |
| B22 | -0.239 |
| B23 | 0.558 |
| B24 | -0.577 |
| B25 | -1.23 |

| Sequence | log2 fold change of degron read counts |
| --- | --- |
| B26 | -1.88 |
| B27 | -1.32 |
| B28 | -0.707 |
| B29 | 1.57 |
| B30 | -0.241 |
| B31 | -1.09 |
| B32 | -0.609 |
| B33 | -0.403 |
| B34 | -0.667 |
| B35 | -0.575 |
| B36 | -0.202 |
| B37 | 0.648 |
| B38 | 0.675 |
| B39 | -1.35 |
| B40 | -0.454 |
| B41 | 0.359 |
| B42 | -1.24 |
| B43 | -0.886 |
| B44 | -0.437 |
| B45 | 0.497 |
| B46 | -1.27 |
| B47 | 0.345 |
| B48 | 0.102 |
| B49 | -0.209 |
| B50 | -2.57 |
